From publication PMC4336329 (PLoS ONE, 2015)
Screen size: about 310,000 compounds; about 2,200 (0.71%) showed an effect of 50% or more. The effect is printed as a negative number. The list shows a part of the results.

Biological target: human ether-à-go-go-related gene (hERG) potassium channel (human, UniProt Q12809)
Assay: primary screen, population patch clamp on CHO cells stably expressing hERG

Chain of human ether-à-go-go-related gene (hERG) potassium channel (Q12809 whole entry, looked up): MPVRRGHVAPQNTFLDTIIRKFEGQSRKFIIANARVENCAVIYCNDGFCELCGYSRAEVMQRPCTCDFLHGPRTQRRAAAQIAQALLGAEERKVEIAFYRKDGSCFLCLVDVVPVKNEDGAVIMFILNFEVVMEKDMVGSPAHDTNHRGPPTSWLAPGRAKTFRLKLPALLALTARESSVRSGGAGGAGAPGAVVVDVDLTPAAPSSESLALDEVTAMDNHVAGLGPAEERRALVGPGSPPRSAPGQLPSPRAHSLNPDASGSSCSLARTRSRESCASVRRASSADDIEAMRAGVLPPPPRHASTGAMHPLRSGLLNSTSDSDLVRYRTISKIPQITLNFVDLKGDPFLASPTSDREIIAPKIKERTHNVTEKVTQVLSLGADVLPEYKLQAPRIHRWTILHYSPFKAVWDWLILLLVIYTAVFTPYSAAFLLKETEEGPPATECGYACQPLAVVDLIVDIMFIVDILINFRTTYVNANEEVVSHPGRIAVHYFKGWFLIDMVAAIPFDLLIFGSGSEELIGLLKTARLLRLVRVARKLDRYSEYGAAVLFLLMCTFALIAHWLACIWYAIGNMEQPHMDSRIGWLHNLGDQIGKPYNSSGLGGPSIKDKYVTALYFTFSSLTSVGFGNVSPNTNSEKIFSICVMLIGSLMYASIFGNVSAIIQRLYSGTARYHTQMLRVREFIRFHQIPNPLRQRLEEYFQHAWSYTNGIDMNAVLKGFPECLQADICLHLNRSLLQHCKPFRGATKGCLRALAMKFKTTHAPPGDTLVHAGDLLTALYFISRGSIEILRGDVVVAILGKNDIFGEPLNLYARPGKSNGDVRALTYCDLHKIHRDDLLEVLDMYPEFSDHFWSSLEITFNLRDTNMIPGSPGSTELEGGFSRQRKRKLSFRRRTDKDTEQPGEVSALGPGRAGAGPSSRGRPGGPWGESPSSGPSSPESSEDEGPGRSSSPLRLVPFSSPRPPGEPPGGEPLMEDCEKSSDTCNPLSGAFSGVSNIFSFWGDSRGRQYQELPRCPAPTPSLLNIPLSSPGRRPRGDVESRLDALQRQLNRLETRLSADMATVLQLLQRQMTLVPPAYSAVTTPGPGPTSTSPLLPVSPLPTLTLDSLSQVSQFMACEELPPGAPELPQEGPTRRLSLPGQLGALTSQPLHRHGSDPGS

Row | Structure (SMILES) | hERG current change (%, negative = inhibition) at 1uM
1 | O=C(NC(=S)NC1CCSC1=O)c1ccccc1F (centres unmarked) | 12.6%
2 | Cn1c(CCN2CCOCC2)nc2cc(NC(=O)COc3ccc([N+](=O)[O-])cc3)ccc21 | 17.1%
3 | CC(OC(=O)c1cccc(-n2cnnn2)c1)C(=O)c1ccccc1 (centres unmarked) | -3.7%
4 | O=C(NC(=S)Nc1ccc(S(=O)(=O)Nc2nccs2)cc1)c1cccc(F)c1 | 4.03%
5 | Cc1cc(Br)cc(C)c1OCC(=O)NNC(=O)CCC(=O)NCc1ccccc1 | 17.5%
6 | CCN1CCSc2ccc(C(=O)NCc3cccc(Br)c3)cc21 | 10.6%
7 | COc1ccc(C[C@@H]2c3cc(O)c(OC)cc3CCN2C)cc1O.[O-][Cl+3]([O-])([O-])O | 9.5%
8 | COc1ccc(-n2cnnc2SCC(=O)Nc2cc(C(C)(C)C)nn2-c2ccccc2)cc1 | -1.54%
9 | CS(=O)(=O)N1CCN(c2ccccc2NC(=O)c2cc(Br)ccc2Cl)CC1 | -1.64%
10 | Cc1ccc(CCN2CC(C(=O)N3CCN(c4ccc(F)cc4)CC3)CC2=O)cc1 (centres unmarked) | -42%
11 | CCOC(=O)C(C)N(c1ccccc1Cl)S(C)(=O)=O (centres unmarked) | 1.57%
12 | CCOC(=O)c1ccc(Oc2ccc(C(F)(F)F)cn2)cc1 | 5.32%
13 | O=C(Nc1nnc(Cc2ccccc2)s1)Nc1ccccc1F | 9.12%
14 | COC(=O)c1ccc(COc2nc(C)cc(C)c2C#N)o1 | -6.61%
15 | Cc1cnc(C(=O)OCC(=O)c2ccc(-c3ccccc3)cc2)cn1 | 7.97%
16 | COc1ccc2nc3c(c(-c4ccccc4)c2c1)CCC3 | 9.81%
17 | Cc1ccc(NC(=S)NCc2cccnc2)cc1 | -2.58%
18 | CCOP(=O)(Cc1ccccc1)OCC | 10.5%
19 | COc1cccc(CNC(=O)c2ccccc2N)c1 | -4.47%
20 | Cc1ccc(S(=O)(=O)N2CCN(C(=O)C(C)Cn3cncn3)CC2)cc1 (centres unmarked) | 7.75%
21 | COc1ccc(-c2nnc3sc(CCN4C(=O)c5ccccc5C4=O)nn23)cc1 | 3.55%
22 | CN(C)c1ccc(/C=N/NC(=O)C(=O)N2CCCCCC2)cc1 | 19.4%
23 | O=C(COC(=O)c1cc(Br)ccc1Cl)NC1CCCC1 | 10.2%

Row | Structure (SMILES) | hERG current change (%, negative = inhibition) at 1uM
24 | CC(C)NC(=O)COc1ccc(OCc2ccccc2)cc1 | 13.9%
25 | CC1CCN(C(=O)COC(=O)COc2ccccc2C#N)CC1 | 7.69%
26 | COc1cccc(NC(=O)c2ccc3c(c2)N(C)CCS3)c1 | 1.72%
27 | CN(C[C@H](Cc1ccccc1)N(C[C@H](Cc1ccccc1)N(CC1(c2ccccc2)CC1)N=O)N=O)N=O.[Na+] | 13.6%
28 | Cc1cc(NC(=O)Nc2cccc([N+](=O)[O-])c2)no1 | 3.73%
29 | Cc1ccc(-n2c(CNCc3ccc(F)cc3)nc3ccccc3c2=O)cc1 | 7.32%
30 | O=C(O)C(=O)O.O=C(c1cccc(F)c1)N1CCN(Cc2cccc(Br)c2)CC1 | -7.13%
31 | COc1ccc(CNC(=O)c2c(-c3c(F)cccc3Cl)noc2C)cc1 | 16.4%
32 | COC(=O)c1ccc(NC(=O)CN2CCOCC2)cc1 | 19.1%
33 | Cc1cc(C)c(S(=O)(=O)c2ccccc2F)c(=O)[nH]1 | 22.2%
34 | CSc1ncccc1C(=O)OCc1ccccc1Cl | 17.5%
35 | COCCOC(=O)c1c(C)oc2cc(Br)c(OCC(N)=O)cc12 | 12.6%
36 | CCOc1ccc2nc(NC(=O)CSc3nc4c(c(=O)n(C)c(=O)n4C)n3C(C)C)sc2c1 | 2.42%
37 | Cc1ccc(-c2csc3ncn(CC(=O)N4CCOCC4)c(=O)c23)cc1C | 3.01%
38 | COC(=O)C1=C(C)N(C)C(=O)NC1c1cc(Cl)c(O)c(OC)c1 (centres unmarked) | 2.68%
39 | O=C(OCCCN1CCCC1)C1(c2ccccc2)CCCC1 | 0.859%
40 | CCN(CC)C(=O)CSc1nc2ncccc2[nH]1 | -16.3%
41 | CCCS/C(N)=N/N=C/c1cc(C)ccc1O | 14.3%
42 | Cn1nnnc1Sc1ncnc2scc(-c3cccs3)c12 | 17.5%
43 | NC(=O)c1ccc(OCC(F)(F)C(F)(F)C(F)(F)C(F)(F)C(F)(F)C(F)F)cc1 | 11%
44 | CC(=O)c1ccc(NC(=S)NCc2ccco2)cc1 | 14.7%
45 | CC(=O)Nc1ccc(OCC(=O)NCc2ccccc2)cc1 | 12.9%
46 | Cc1nc(N2CCOCC2)[nH]c(=O)c1C(O)C(Cl)(Cl)Cl (centres unmarked) | 11.6%

Row | Structure (SMILES) | hERG current change (%, negative = inhibition) at 1uM
47 | CCOc1cc(N2CCOCC2)c(OCC)cc1NC(=O)CN1CCC(Cc2ccccc2)CC1 | 5.3%
48 | O=C1C2C3CCC(C3)C2C(=O)N1c1ccc(OS(=O)(=O)c2ccccc2)cc1 (centres unmarked) | 5.76%
49 | Cc1ccc(-c2csc(N/N=C/c3ccco3)n2)cc1 | -2.36%
50 | CC(C)(C)c1csc(NC(=O)Cc2ccc(S(=O)(=O)N3CCOCC3)s2)n1 | 6.76%
51 | COc1ccc(C(=O)NNC(=O)c2cccc(F)c2)cc1 | 0.0778%
52 | O=S(=O)(NCc1cccnc1)c1ccc(Cl)nc1 | 10.4%
53 | Cc1cc(=O)n2nc(N3CCC(C(=O)NCC(C)c4ccccc4)CC3)sc2n1 (centres unmarked) | 11.7%
54 | O=C1CC(c2ccco2)Sc2nc3ccccc3n21 (centres unmarked) | 8.33%
55 | COc1cc(C(=O)NCc2ccc(-c3nc4ccccc4s3)cc2)cc(OC)c1OC | 13.7%
56 | COc1ccc2c(c1OC)C(=O)OC2C1c2c(cc3c(c2OC)OCO3)CCN1C.Cl (centres unmarked) | 9.06%
57 | CC/C(O)=C1\C(=O)CC(c2ccccc2)CC1=NCCC(=O)O (centres unmarked) | 16.4%
58 | COCCN(C(C)=O)c1nnc(-c2cnccn2)s1 | 7.47%
59 | CCN(CC(=O)Nc1cc(Cl)ccc1C)C(=O)COc1cccc2c1OC(C)(C)C2 | 0.28%
60 | Cc1cccc(C)c1OCCCCN1CCCCC1.O=C(O)C(=O)O | 8.28%
61 | O=C(CC(=O)N/N=C/c1cccs1)NCc1ccccc1 | 10.4%
62 | CCOC(=O)c1cc[n+](CC(=O)c2ccc(F)cc2)cc1.[Br-] | 3.52%
63 | COC(=O)c1ccc(NC(=O)COc2cccc(-n3cnnn3)c2)cc1 | 17.7%
64 | Nc1nc(SCc2ccccc2Cl)ns1 | 8.18%
65 | CCC(=O)NCCCCCCNC(=O)CC | 9.57%
66 | O=S(=O)(Nc1nc2ccccc2nc1Cl)c1ccccc1C(F)(F)F | 11.3%
67 | C=CCSc1nnc2c(n1)OC(c1cccnc1)Nc1ccccc1-2 (centres unmarked) | 2.84%
68 | CCOc1ccc(C(=O)NC2CCN(S(=O)(=O)c3ccccc3)CC2)cc1 | 11.4%
69 | Cn1c(SCC(=O)NC2CCCC2)nnc1-c1ccco1 | 12.9%

Row | Structure (SMILES) | hERG current change (%, negative = inhibition) at 1uM
70 | Nc1ccc(N2CCOCC2)c2nonc12 | 23.6%
71 | CC1CCN(c2nnc(-c3cccs3)c3ccccc23)CC1 | -0.472%
72 | O=C(c1cccc2ccccc12)N1CCN(c2ccc([N+](=O)[O-])c(N3CCOCC3)c2)CC1 | 0.0958%
73 | CCCCNC(=O)c1ccc(SCC(=O)N(CC)CC)c([N+](=O)[O-])c1 | 5.49%
74 | COC(=O)CC1(CC(=O)OC)C(=O)NC(=O)NC1=O | 12.8%
75 | O=C(N/N=C/c1ccccn1)c1cccc(NC(=O)c2ccc(Cl)cc2)c1 | 7.76%
76 | Fc1ccc(CCNCc2ccc(Br)cc2)cc1 | -9.83%
77 | CCC(=O)N1CCN(c2ccccc2NC(=O)c2ccc(-c3cccc([N+](=O)[O-])c3)o2)CC1 | -3.2%
78 | CCCS(=O)(=O)c1nc(S(=O)(=O)c2ccc(Cl)cc2)c(N2CCC(O)CC2)s1 | 13.1%
79 | CCCOc1ccc(C(=O)CCNc2ccc(C)c(Cl)c2)cc1 | -1.97%
80 | Cc1cc(NS(=O)(=O)c2cccs2)no1 | 9.44%
81 | COc1ccc2c(c1)c(=O)oc1cc(OCC(=O)N3CCCC(C)C3)ccc12 (centres unmarked) | 3.3%
82 | COc1ccc(S(=O)(=O)N2CCOC2CNC(=O)C(=O)NCc2ccc(F)cc2)cc1OC (centres unmarked) | 9.37%
83 | C=CCSc1[nH]c(=O)cc(C)c1C(N)=O | 5.84%
84 | CC(=O)c1cc(CN2CCN(CC=C(C)C)C(CCO)C2)cs1 (centres unmarked) | 13.4%
85 | CCOC(=O)c1sc2nc(C)nc(SCC(N)=O)c2c1C | 14.2%
86 | CCOC(=O)c1csc(NC(=O)CSc2nnnn2-c2cccc(OC)c2)n1 | 12.2%
87 | Cc1ccc2c(=O)cc(C(=O)NC3CCS(=O)(=O)C3)oc2c1 (centres unmarked) | 13.1%
88 | O=C(Nc1cccc2c1[nH]c1ccccc12)C(F)(F)F | 0.169%
89 | CCc1nnc(NC(=O)CSc2nnc(Cc3cc(=O)[nH]c(=O)[nH]3)n2-c2cccc(OC)c2)s1 | 4.49%
90 | CCOc1ccccc1C(=O)Nc1ccc(NC(=O)c2ccccc2)cc1 | 13.6%
91 | CC1CCN(C2(O)C(=O)Nc3ccc([N+](=O)[O-])cc32)CC1 (centres unmarked) | 0.801%
92 | COc1ccc(C2C(C(=O)N3CCN(c4ccccn4)CC3)CCC(=O)N2c2ccc(OC)cc2)cc1 (centres unmarked) | -0.548%
